# Results: the supplement of paper PMC8728848
# Some of the results follow.
# Legend:
# Experiment in all cases: glycan array binding signal (z-score within array); higher = stronger binding
# Conditions in all cases: glycan notation: IUPAC condensed, linker removed
# GalNAc(b1-4)GlcNAc = molecular target: GalNAc(b1-4)GlcNAc
# Procedure, shortened: (§1)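 Arrays were curated from the Consortium for Functional Glycomics database, 3228 in total, and kept only where the protein sequence was available. Binding is expressed as a within-array Z-score. This score was averaged across arrays of the same protein sequence at different concentrations or buffers and across linkers, and negative values can be read as non-binding.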
# [1] = molecular target: GalNAc(b1-4)GlcNAc(b1-2)Man
# Procedure, shortened: as §1
# [2] = molecular target: GalNAc(b1-4)GlcNAc(b1-2)Man(a1-3)[GalNAc(b1-4)GlcNAc(b1-2)Man(a1-6)]Man(b1-4)GlcNAc(b1-4)GlcNAc
# Procedure, shortened: as §1
# [3] = molecular target: GalNAc(b1-4)GlcNAc(b1-3)GalNAc(b1-4)GlcNAc
# Procedure, shortened: as §1
# GalNAc(b1-4)GlcNAc6S = molecular target: GalNAc(b1-4)GlcNAc6S
# Procedure, shortened: as §1
# GalNAc(b1-6)GalNAc = molecular target: GalNAc(b1-6)GalNAc
# Procedure, shortened: as §1
# GalNAc3S(b1-4)GlcNAc = molecular target: GalNAc3S(b1-4)GlcNAc
# Procedure, shortened: as §1
# GalNAc3S(b1-4)GlcNAc3S = molecular target: GalNAc3S(b1-4)GlcNAc3S
# Procedure, shortened: as §1
# [4] = molecular target: GalNAc3S(b1-4)[Fuc(a1-3)]GlcNAc
# Procedure, shortened: as §1
# GalNAc4S6S(b1-4)GlcNAc = molecular target: GalNAc4S6S(b1-4)GlcNAc
# Procedure, shortened: as §1
# GalNAc6S(b1-4)GlcNAc = molecular target: GalNAc6S(b1-4)GlcNAc
# Procedure, shortened: as §1
# Glc(a1-4)Glc = molecular target: Glc(a1-4)Glc
# Procedure, shortened: as §1
# [5] = molecular target: Glc(a1-4)Glc(a1-4)Glc(a1-4)Glc
# Procedure, shortened: as §1
# Glc(a1-6)Glc(a1-6)Glc = molecular target: Glc(a1-6)Glc(a1-6)Glc
# Procedure, shortened: as §1
# [6] = molecular target: Glc(a1-6)Glc(a1-6)Glc(a1-6)Glc
# Procedure, shortened: as §1
# Glc(b1-4)Glc = molecular target: Glc(b1-4)Glc
# Procedure, shortened: as §1
# Glc(b1-6)Glc = molecular target: Glc(b1-6)Glc
# Procedure, shortened: as §1
# GlcA(b1-3)Gal = molecular target: GlcA(b1-3)Gal
# Procedure, shortened: as §1
# GlcA(b1-3)GlcNAc = molecular target: GlcA(b1-3)GlcNAc
# Procedure, shortened: as §1
# GlcA(b1-6)Gal = molecular target: GlcA(b1-6)Gal
# Procedure, shortened: as §1
# [7] = molecular target: GlcA3S(b1-3)Gal(b1-4)GlcNAc(b1-2)Man
# Procedure, shortened: as §1
# [8] = molecular target: GlcA3S(b1-3)Gal(b1-4)GlcNAc(b1-3)Gal(b1-4)Glc
# Procedure, shortened: as §1
# [9] = molecular target: GlcNAc(a1-3)Gal(b1-4)GlcNAc
# Procedure, shortened: as §1
# [10] = molecular target: GlcNAc(a1-4)Gal(b1-3)GlcNAc
# Procedure, shortened: as §1
# [11] = molecular target: GlcNAc(a1-4)Gal(b1-4)GalNAc
# Procedure, shortened: as §1
# [12] = molecular target: GlcNAc(a1-4)Gal(b1-4)GlcNAc
# Procedure, shortened: as §1
# [13] = molecular target: GlcNAc(a1-4)Gal(b1-4)GlcNAc(b1-3)Gal(b1-4)Glc
# Procedure, shortened: as §1
# [14] = molecular target: GlcNAc(a1-4)Gal(b1-4)GlcNAc(b1-3)Gal(b1-4)GlcNAc
# Procedure, shortened: as §1
# [15] = molecular target: GlcNAc(a1-4)Gal(b1-4)GlcNAc(b1-3)Gal(b1-4)GlcNAc(b1-3)Gal(b1-4)GlcNAc
# Procedure, shortened: as §1
# [16] = molecular target: GlcNAc(a1-4)Gal(b1-4)GlcNAc(b1-3)Gal(b1-4)[Fuc(a1-3)]GlcNAc(b1-3)Gal(b1-4)[Fuc(a1-3)]GlcNAc
# Procedure, shortened: as §1
# [17] = molecular target: GlcNAc(a1-6)Gal(b1-4)GlcNAc
# Procedure, shortened: as §1
# [18] = molecular target: GlcNAc(b1-2)Gal(b1-3)GalNAc
# Procedure, shortened: as §1
# [19] = molecular target: GlcNAc(b1-2)Man(a1-3)[GlcNAc(b1-2)Man(a1-6)]Man(b1-4)GlcNAc(b1-4)GlcNAc
# Procedure, shortened: as §1
# [20] = molecular target: GlcNAc(b1-2)Man(a1-3)[GlcNAc(b1-2)Man(a1-6)]Man(b1-4)GlcNAc(b1-4)[Fuc(a1-6)]GlcNAc
# Procedure, shortened: as §1
# [21] = molecular target: GlcNAc(b1-2)Man(a1-3)[GlcNAc(b1-4)][GlcNAc(b1-2)Man(a1-6)]Man(b1-4)GlcNAc(b1-4)GlcNAc
# Procedure, shortened: as §1
# [22] = molecular target: GlcNAc(b1-2)Man(a1-3)[GlcNAc(b1-4)][GlcNAc(b1-2)Man(a1-6)]Man(b1-4)GlcNAc(b1-4)[Fuc(a1-6)]GlcNAc
# Procedure, shortened: as §1
# [23] = molecular target: GlcNAc(b1-2)[GlcNAc(b1-4)]Man(a1-3)[GlcNAc(b1-2)Man(a1-6)]Man(b1-4)GlcNAc(b1-4)GlcNAc
# Procedure, shortened: as §1
# [24] = molecular target: GlcNAc(b1-2)[GlcNAc(b1-4)]Man(a1-3)[GlcNAc(b1-4)][GlcNAc(b1-2)Man(a1-6)]Man(b1-4)GlcNAc(b1-4)GlcNAc
# Procedure, shortened: as §1
# [25] = molecular target: GlcNAc(b1-2)[GlcNAc(b1-4)]Man(a1-3)[GlcNAc(b1-4)][GlcNAc(b1-2)[GlcNAc(b1-6)]Man(a1-6)]Man(b1-4)GlcNAc(b1-4)GlcNAc
# Procedure, shortened: as §1
# [26] = molecular target: GlcNAc(b1-2)[GlcNAc(b1-4)]Man(a1-3)[GlcNAc(b1-4)][GlcNAc(b1-2)[GlcNAc(b1-6)]Man(a1-6)]Man(b1-4)GlcNAc(b1-4)[Fuc(a1-6)]GlcNAc
# Procedure, shortened: as §1
# [27] = molecular target: GlcNAc(b1-2)[GlcNAc(b1-6)]Man(a1-6)[GlcNAc(b1-2)Man(a1-3)]Man(b1-4)GlcNAc(b1-4)GlcNAc
# Procedure, shortened: as §1
# [28] = molecular target: GlcNAc(b1-2)[GlcNAc(b1-6)]Man(a1-6)[GlcNAc(b1-2)Man(a1-3)]Man(b1-4)GlcNAc(b1-4)[Fuc(a1-6)]GlcNAc
# Procedure, shortened: as §1
# [29] = molecular target: GlcNAc(b1-2)[GlcNAc(b1-6)]Man(a1-6)[GlcNAc(b1-4)][GlcNAc(b1-2)Man(a1-3)]Man(b1-4)GlcNAc(b1-4)GlcNAc
# Procedure, shortened: as §1
# GlcNAc(b1-3)Fuc = molecular target: GlcNAc(b1-3)Fuc
# Procedure, shortened: as §1
# GlcNAc(b1-3)Gal = molecular target: GlcNAc(b1-3)Gal
# Procedure, shortened: as §1
binder,measurement,setting,value
CAA (Caragana arborescens) (protein) VAVEFDTFDNPDWDPRTKHIGIDVNSIRSNKTTQWGFWNRQVADVDISYEASSKTLNVSLYYPGESYIVTDVVDLKDILPEWVRIGF,glycan array binding signal (z-score),GalNAc(b1-4)GlcNAc,-0.239
same,glycan array binding signal (z-score),[1],-0.236
same,glycan array binding signal (z-score),[2],-0.081
same,glycan array binding signal (z-score),[3],-0.264
same,glycan array binding signal (z-score),GalNAc(b1-4)GlcNAc6S,-0.249
same,glycan array binding signal (z-score),GalNAc(b1-6)GalNAc,-0.248
same,glycan array binding signal (z-score),GalNAc3S(b1-4)GlcNAc,-0.253
same,glycan array binding signal (z-score),GalNAc3S(b1-4)GlcNAc3S,-0.253
same,glycan array binding signal (z-score),[4],-0.255
same,glycan array binding signal (z-score),GalNAc4S6S(b1-4)GlcNAc,-0.247
same,glycan array binding signal (z-score),GalNAc6S(b1-4)GlcNAc,-0.252
same,glycan array binding signal (z-score),Glc(a1-4)Glc,-0.218
same,glycan array binding signal (z-score),[5],-0.247
same,glycan array binding signal (z-score),Glc(a1-6)Glc(a1-6)Glc,-0.237
same,glycan array binding signal (z-score),[6],-0.216
same,glycan array binding signal (z-score),Glc(b1-4)Glc,-0.233
same,glycan array binding signal (z-score),Glc(b1-6)Glc,-0.236
same,glycan array binding signal (z-score),GlcA(b1-3)Gal,-0.239
same,glycan array binding signal (z-score),GlcA(b1-3)GlcNAc,-0.242
same,glycan array binding signal (z-score),GlcA(b1-6)Gal,-0.239
same,glycan array binding signal (z-score),[7],-0.251
same,glycan array binding signal (z-score),[8],-0.243
same,glycan array binding signal (z-score),[9],-0.253
same,glycan array binding signal (z-score),[10],-0.239
same,glycan array binding signal (z-score),[11],-0.239
same,glycan array binding signal (z-score),[12],-0.236
same,glycan array binding signal (z-score),[13],-0.253
same,glycan array binding signal (z-score),[14],-0.246
same,glycan array binding signal (z-score),[15],-0.238
same,glycan array binding signal (z-score),[16],-0.201
same,glycan array binding signal (z-score),[17],-0.246
same,glycan array binding signal (z-score),[18],-0.245
same,glycan array binding signal (z-score),[19],5.92
same,glycan array binding signal (z-score),[20],3.39
same,glycan array binding signal (z-score),[21],1.19
same,glycan array binding signal (z-score),[22],-0.057
same,glycan array binding signal (z-score),[23],7.33
same,glycan array binding signal (z-score),[24],-0.117
same,glycan array binding signal (z-score),[25],-0.24
same,glycan array binding signal (z-score),[26],-0.245
same,glycan array binding signal (z-score),[27],-0.234
same,glycan array binding signal (z-score),[28],-0.05
same,glycan array binding signal (z-score),[29],-0.241
same,glycan array binding signal (z-score),GlcNAc(b1-3)Fuc,-0.246
same,glycan array binding signal (z-score),GlcNAc(b1-3)Gal,-0.244
